pIC50: −log10 of the molar value. By IC50 is meant the dose at which the fit gives 50% viability; fits outside the tested doses are given as limits. AUC sums up the same curve from the lowest dose to the 256-fold higher top dose: 1 means no effect, lower means more sensitive. For part of these data: Where the top dose is marked as inferred, it was calculated from the reported fits.
Key:
Test in all cases: Viability of human cancer cell lines after 72 h of drug (GDSC screen)
PIK-93 = compound: CC(=O)Nc1nc(C)c(-c2ccc(Cl)c(S(=O)(=O)NCCO)c2)s1 [PIK-93]; conditions: top dose 20 µM
Description: (§1)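 Human cancer cell lines in 384-well plates, medium with 10% serum, drug for 72 h over a 256-fold dose range (nine 2-fold or five 4-fold steps up to the top dose). Adherent lines were fixed and stained with the nucleic acid dye Syto60, suspension lines read with resazurin; signal relative to control wells, capped at 0 and 100%. One two-parameter sigmoid per drug and line, fitted in a mixed model over all curves with the slope shared within a line.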

GW 441756 = compound: Cn1cc(/C=C2\C(=O)Nc3cccnc32)c2ccccc21 [GW 441756]; conditions: top dose 2 µM; top dose inferred
Description: as §1

ABT-263 = compound: CC1(C)CCC(c2ccc(Cl)cc2)=C(CN2CCN(c3ccc(C(=O)NS(=O)(=O)c4ccc(N[C@H](CCN5CCOCC5)CSc5ccccc5)c(S(=O)(=O)C(F)(F)F)c4)cc3)CC2)C1 [ABT-263]; conditions: top dose 2 µM; top dose inferred
Description: as §1

piperlongumine = compound: COc1cc(/C=C/C(=O)N2CCC=CC2=O)cc(OC)c1OC [piperlongumine]; conditions: top dose 10 µM
Description: as §1

Cell Line | AUC (PIK-93) | pIC50 (PIK-93) | AUC (GW 441756) | pIC50 (GW 441756) | AUC (ABT-263) | pIC50 (ABT-263) | AUC (piperlongumine) | pIC50 (piperlongumine)
NCI-H2087 (lung adenocarcinoma, semi-adherent) | 0.944 | < 4.70 | 0.983 | < 5.70 | 0.914 | < 5.70 | 0.842 | 5.11
ESS-1 (endometrium, adherent) | 0.989 | < 4.70 | 0.99 | < 5.70 | 0.892 | 5.71 | 0.79 | 5.40
MS751 (cervix, adherent) | 0.956 | < 4.70 | 0.981 | < 5.70 | 0.989 | < 5.70 | 0.752 | 5.51
PANC-03-27 (pancreas, adherent) | 0.708 | 5.33 | 0.988 | < 5.70 | 0.956 | < 5.70 | 0.776 | 5.43
UWB1.289 (ovary, adherent) | 0.862 | < 4.70 | 0.965 | < 5.70 | 0.907 | < 5.70 | 0.774 | 5.21
RCC-MF (kidney, adherent) | 0.596 | 5.61 | 0.797 | 5.89 | 0.568 | 6.69 | 0.689 | 5.60
HCC1143 (breast, adherent) | 0.72 | 5.16 | 0.972 | < 5.70 | 0.95 | < 5.70 | 0.777 | 5.24
IGR-1 (melanoma, adherent) | 0.759 | 5.21 | 0.987 | < 5.70 | 0.88 | 5.79 | 0.777 | 5.45
NCI-H841 (small cell lung carcinoma, adherent) | 0.85 | 4.82 | 0.96 | < 5.70 | 0.957 | < 5.70 | 0.863 | 5.06
MHH-ES-1 (Ewing sarcoma, adherent) | 0.316 | 6.41 | 0.805 | 6.00 | 0.952 | < 5.70 | 0.722 | 5.58
KP-2 (pancreas, adherent) | 0.909 | < 4.70 | 0.986 | < 5.70 | 0.727 | 6.23 | 0.783 | 5.34
HOS (osteosarcoma, adherent) | 0.992 | < 4.70 | 0.989 | < 5.70 | 0.984 | < 5.70 | 0.637 | 5.86
OVCA433 (ovary, adherent) | 0.868 | < 4.70 | 0.941 | < 5.70 | 0.985 | < 5.70 | 0.699 | 5.61
NCI-H1792 (lung adenocarcinoma, adherent) | 0.915 | < 4.70 | 0.983 | < 5.70 | 0.964 | < 5.70 | 0.917 | < 5.00
647-V (bladder, adherent) | 0.934 | < 4.70 | 0.982 | < 5.70 | 0.979 | < 5.70 | 0.754 | 5.47
CHSA0108 (chondrosarcoma, adherent) | 0.888 | < 4.70 | 0.981 | < 5.70 | 0.963 | < 5.70 | 0.79 | 5.28
OV-7 (ovary, adherent) | 0.614 | 5.52 | 0.969 | < 5.70 | 0.753 | 6.00 | 0.72 | 5.43
A375 (melanoma, adherent) | 0.814 | 5.07 | 0.962 | < 5.70 | 0.974 | < 5.70 | 0.593 | 5.97
KYSE-510 (oesophagus, adherent) | 0.895 | 4.77 | 0.964 | < 5.70 | 0.988 | < 5.70 | 0.839 | 5.28
KYSE-150 (oesophagus, adherent) | 0.89 | < 4.70 | 0.989 | < 5.70 | 0.987 | < 5.70 | 0.854 | 5.13
Hs939-T (melanoma, adherent) | 0.961 | < 4.70 | 0.909 | < 5.70 | 0.963 | < 5.70 | 0.751 | 5.45

Cell Line | AUC (PIK-93) | pIC50 (PIK-93) | AUC (GW 441756) | pIC50 (GW 441756) | AUC (ABT-263) | pIC50 (ABT-263) | AUC (piperlongumine) | pIC50 (piperlongumine)
NCI-H596 (lung adenocarcinoma, adherent) | 0.642 | 5.46 | 0.97 | < 5.70 | 0.88 | < 5.70 | 0.754 | 5.37
NCI-H1623 (lung adenocarcinoma, adherent) | 0.924 | < 4.70 | 0.903 | < 5.70 | 0.889 | < 5.70 | 0.921 | < 5.00
MOG-G-UVW (glioma, adherent) | 0.858 | 4.80 | 0.969 | < 5.70 | 0.959 | < 5.70 | 0.554 | 6.06
SNU-C5 (large intestine, adherent) | 0.856 | 4.73 | 0.916 | < 5.70 | 0.964 | < 5.70 | 0.716 | 5.56
SW48 (large intestine, adherent) | 0.886 | < 4.70 | 0.987 | < 5.70 | 0.926 | < 5.70 | 0.82 | 5.24
SNU-423 (liver, adherent) | 0.762 | 5.08 | 0.904 | < 5.70 | 0.874 | < 5.70 | 0.686 | 5.64
SNG-M (endometrium, adherent) | 0.817 | 4.96 | 0.934 | < 5.70 | 0.936 | < 5.70 | 0.57 | 6.01
GMS-10 (glioma, adherent) | 0.941 | < 4.70 | 0.986 | < 5.70 | 0.971 | < 5.70 | 0.694 | 5.66
OVKATE (ovary, adherent) | 0.724 | 5.07 | 0.804 | 5.70 | 0.969 | < 5.70 | 0.87 | < 5.00
LS-180 (large intestine, adherent) | 0.898 | < 4.70 | 0.886 | < 5.70 | 0.936 | < 5.70 | 0.892 | < 5.00
CAL-12T (non-small cell lung carcinoma, adherent) | 0.781 | 5.03 | 0.967 | < 5.70 | 0.966 | < 5.70 | 0.76 | 5.41
G-361 (melanoma, adherent) | 0.741 | 5.23 | 0.895 | < 5.70 | 0.988 | < 5.70 | 0.804 | 5.32
FADU (head and neck, adherent) | 0.968 | < 4.70 | 0.869 | 5.76 | 0.948 | < 5.70 | 0.698 | 5.66
8505C (thyroid, adherent) | 0.783 | 5.05 | 0.966 | < 5.70 | 0.899 | < 5.70 | 0.729 | 5.53
COR-L321 (lung, suspension) | 0.803 | 5.00 | 0.98 | < 5.70 | 0.841 | 5.86 | 0.954 | < 5.00
NCI-H2023 (lung adenocarcinoma, adherent) | 0.93 | < 4.70 | 0.967 | < 5.70 | 0.912 | < 5.70 | 0.805 | 5.18
BFTC-905 (bladder, adherent) | 0.905 | < 4.70 | 0.963 | < 5.70 | 0.979 | < 5.70 | 0.81 | 5.36
SJRH30 (rhabdomyosarcoma, adherent) | 0.901 | < 4.70 | 0.886 | < 5.70 | 0.979 | < 5.70 | 0.718 | 5.58
RCC-JW (kidney, adherent) | 0.838 | 4.85 | 0.901 | < 5.70 | 0.83 | 5.89 | 0.677 | 5.70
RT4 (bladder, adherent) | 0.538 | 5.80 | 0.909 | < 5.70 | 0.987 | < 5.70 | 0.808 | 5.26
MOG-G-CCM (glioma, adherent) | 0.778 | 5.02 | 0.982 | < 5.70 | 0.842 | 5.75 | 0.758 | 5.40

Cell Line | AUC (PIK-93) | pIC50 (PIK-93) | AUC (GW 441756) | pIC50 (GW 441756) | AUC (ABT-263) | pIC50 (ABT-263) | AUC (piperlongumine) | pIC50 (piperlongumine)
EFM-192A (breast, adherent) | 0.756 | 5.12 | 0.977 | < 5.70 | 0.886 | < 5.70 | 0.854 | 5.03
SW620 (large intestine, adherent) | 0.937 | < 4.70 | 0.96 | < 5.70 | 0.896 | 5.71 | 0.708 | 5.65
SCC-25 (head and neck, adherent) | 0.797 | 4.96 | 0.983 | < 5.70 | 0.942 | < 5.70 | 0.806 | 5.23
D-423MG (glioma, adherent) | 0.53 | 5.81 | 0.98 | < 5.70 | 0.973 | < 5.70 | 0.712 | 5.54
NCI-H1435 (lung adenocarcinoma, semi-adherent) | 0.949 | < 4.70 | 0.992 | < 5.70 | 0.709 | 6.35 | 0.943 | < 5.00
TYK-nu (ovary, adherent) | 0.903 | < 4.70 | 0.978 | < 5.70 | 0.941 | < 5.70 | 0.724 | 5.55
T98G (glioma, adherent) | 0.82 | 4.98 | 0.989 | < 5.70 | 0.953 | < 5.70 | 0.814 | 
SW948 (large intestine, adherent) | 0.89 | < 4.70 | 0.937 | < 5.70 | 0.965 | < 5.70 | 0.909 | < 5.00
HCC1395 (breast, adherent) | 0.948 | < 4.70 | 0.927 | < 5.70 | 0.917 | < 5.70 | 0.89 | < 5.00
FU97 (stomach, adherent) | 0.89 | < 4.70 | 0.952 | < 5.70 | 0.98 | < 5.70 | 0.76 | 5.44
SW1417 (large intestine, adherent) | 0.934 | < 4.70 | 0.983 | < 5.70 | 0.719 | 6.23 | 0.975 | < 5.00
H513 (mesothelioma, semi-adherent) | 0.929 | < 4.70 | 0.953 | < 5.70 | 0.979 | < 5.70 | 0.811 | 5.17
HuP-T4 (pancreas, adherent) | 0.541 | 5.79 | 0.976 | < 5.70 | 0.963 | < 5.70 | 0.724 | 5.55
C-33-A (cervix, adherent) | 0.716 | 5.29 | 0.962 | < 5.70 | 0.981 | < 5.70 | 0.617 | 5.88
UACC-62 (melanoma, adherent) | 0.962 | < 4.70 | 0.987 | < 5.70 | 0.983 | < 5.70 | 0.737 | 5.53
DAN-G (pancreas, adherent) | 0.889 | 4.75 | 0.985 | < 5.70 | 0.952 | < 5.70 | 0.831 | 5.28
OVCA420 (ovary, adherent) | 0.926 | < 4.70 | 0.981 | < 5.70 | 0.982 | < 5.70 | 0.834 | 5.01
SNU-81 (large intestine, adherent) | 0.963 | < 4.70 | 0.98 | < 5.70 | 0.979 | < 5.70 | 0.798 | 5.17
OE33 (oesophagus, adherent) | 0.814 | 4.87 | 0.942 | < 5.70 | 0.969 | < 5.70 | 0.802 | 5.22
HN (head and neck, adherent) | 0.988 | < 4.70 | 0.97 | < 5.70 | 0.945 | < 5.70 | 0.66 | 5.77
